Counter-ions that a name gives are not always drawn. ± gives the standard deviation of the averaged measurements. Whole data set: some 2,600 compounds, median “MBP+ mature oligodendrocyte number relative to DMSO vehicle control” near -0.34, cut for the highest 2% near 13. The list shows a part of the results.
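Further: 10 µM single dose with 3-day oligodendrocyte differentiation.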

This assay concerns jimpy (Plp1 jimpy) mouse iPSC-derived oligodendrocyte progenitor cells. Kind of assay: MBP+ mature oligodendrocyte number relative to DMSO vehicle control (SDs above negative control mean); higher = more surviving jimpy oligodendrocytes (rescue). As to conditions: 10 µM; 3 days.
For the compound `O=C(C=Cc1ccccc1)NC(NC(=S)Nc1ccc(Cl)cc1)C(Cl)(Cl)Cl` (stereo not drawn), the “MBP+ mature oligodendrocyte number” value is -0.386.

`Nc1nc(Cl)nc2c1ncn2[C@H]1C[C@H](O)[C@@H](CO)O1` [Cladribine]: the “MBP+ mature oligodendrocyte number” value is below -6.7.

Turning to `CNCCCC1c2ccccc2C=Cc2ccccc21` [Protriptyline hydrochloride], the “MBP+ mature oligodendrocyte number” value was -3.67.

`CCOC(=O)C1=C[C@@H](OC(CC)CC)[C@H](NC(C)=O)[C@@H](N)C1` [Oseltamivir phosphate]: the “MBP+ mature oligodendrocyte number” value was -0.724.

Consider `C[C@]12CCC(=O)C=C1CC[C@@H]1[C@@H]2[C@@H](O)C[C@@]2(C)[C@H]1CC[C@]2(O)C(=O)CO` [Hydrocortisone], for which the “MBP+ mature oligodendrocyte number” value stood at 5.93 ± 0.88.

For the compound `O=C(CCc1ccc(O)cc1)c1c(O)cc(O)cc1O[C@@H]1O[C@H](CO)[C@@H](O)[C@H](O)[C@H]1O` [Phlorizin], the “MBP+ mature oligodendrocyte number” value is -0.668.

Regarding `S=C(S)OC1CC2CC1C1CCCC21` [D-609 potassium], the “MBP+ mature oligodendrocyte number” value is -1.14.

Turning to `Oc1ncnc2[nH]ncc12` [Allopurinol], the “MBP+ mature oligodendrocyte number” value was determined as 2.67 ± 4.6.

With `CN(N=O)C(=O)NC1C(O)OC(CO)C(O)C1O` (stereo not drawn) [Streptozotocin (STZ)], the “MBP+ mature oligodendrocyte number” value is 0.109.

As to `O=[N+]([O-])c1ccc(-c2nc(-c3ccc(F)cc3)c(-c3ccncc3)[nH]2)cc1`, the “MBP+ mature oligodendrocyte number” value was -3.21.

In the case of `C=C[C@]1(C)C[C@@H](OC(=O)CS[C@@H]2C[C@H]3CC[C@@H](C2)N3C)[C@]2(C)[C@H](C)CC[C@]3(CCC(=O)[C@H]32)[C@@H](C)[C@@H]1O` [Retapamulin], the “MBP+ mature oligodendrocyte number” value stood at 5.81.

As to `CCC(=O)N1CCN(c2ccc(-n3c(=O)ccc4cnc5ccc(-c6cnc7ccccc7c6)cc5c43)cc2C(F)(F)F)CC1` [Torin 1], the “MBP+ mature oligodendrocyte number” value was below -6.01.

With `CO/N=C(\C(=O)N[C@@H]1C(=O)N2C(C(=O)OCOC(=O)C(C)(C)C)=C(/C=C\c3scnc3C)CS[C@H]12)c1csc(N)n1` [Cefditoren Pivoxil], the “MBP+ mature oligodendrocyte number” value worked out at 3.67.

On to `Cc1onc(-c2ccccc2)c1-c1ccc(S(N)(=O)=O)cc1` [Valdecoxib], for which the “MBP+ mature oligodendrocyte number” value came out at 6.74.

Take `CCCc1cc(=O)[nH]c(=S)[nH]1` [Propylthiouracil]: the “MBP+ mature oligodendrocyte number” value came out at 0.523.

On to `O=C(Nc1ccccc1)c1cc([N+](=O)[O-])ccc1Cl`, for which the “MBP+ mature oligodendrocyte number” value is -1.64 ± 1.1.

As to `C=C1C(=O)O[C@@H]2/C=C(\C)CC/C=C(\C)CC[C@@H]12` [Costunolide], the “MBP+ mature oligodendrocyte number” value is below -6.7.

With `C[C@]12CC[C@@H]3c4ccc(O)cc4CC[C@H]3[C@@H]1CC[C@@H]2O` [Estradiol], the “MBP+ mature oligodendrocyte number” value came to 5.47.

Regarding `C[C@]12CC[C@@H]3c4ccc(O)cc4CC[C@H]3[C@@H]1CC[C@@H]2O` [beta-Estradiol], the “MBP+ mature oligodendrocyte number” value stood at 3.17.

Take `CCNC(=O)Nc1ccc(-c2nc3c(c(N4CCOC[C@@H]4C)n2)CCN(C2COC2)C3)cc1`: the “MBP+ mature oligodendrocyte number” value was -4.52.

As for `CCCN(CCC)S(=O)(=O)c1ccc(C(=O)O)cc1` [Probenecid], the “MBP+ mature oligodendrocyte number” value was 3.7.

Take `O=c1[nH]c(=S)[nH]c(-c2ccccc2)c1Cc1c(O)ccc2ccccc12` [Cambinol]: the “MBP+ mature oligodendrocyte number” value was found to be 0.555.

`CC(C)c1ccc(NC(=O)Cn2cnc3c2c(=O)n(C)c(=O)n3C)cc1`: the “MBP+ mature oligodendrocyte number” value is 4.15.

With `C[C@H](NC(=O)/C(C#N)=C/c1cccc(Br)n1)c1ccccc1`, the “MBP+ mature oligodendrocyte number” value was below -6.01.

On to `CCNC(=O)c1[nH]nc(-c2cc(Cl)c(O)cc2O)c1-c1ccc(OC)cc1`, for which the “MBP+ mature oligodendrocyte number” value is -4.64.

As for `CCOC(=O)CCNc1cc(N2CCc3ccccc3CC2)nc(-c2ccccn2)n1`, the “MBP+ mature oligodendrocyte number” value was below -6.35.

Take `CN(C)CCOC(c1ccccc1)c1ccccc1` [Diphenhydramine HCl]: the “MBP+ mature oligodendrocyte number” value is -1.37.

For the compound `CN(C)CCOC(c1ccccc1)c1ccccc1` [Diphenhydramine hydrochloride], the “MBP+ mature oligodendrocyte number” value was -1.59.

Consider `CC(=O)[C@H]1CC[C@H]2[C@@H]3CCC4=CC(=O)CC[C@]4(C)[C@H]3CC[C@]12C` [Progesterone], for which the “MBP+ mature oligodendrocyte number” value is 15.4 ± 7.2.

With `Cn1cc(CNCC2CCN(c3ncc(C(=O)NO)cn3)CC2)c2ccccc21`, the “MBP+ mature oligodendrocyte number” value was below -6.7.

In the case of `OC(CN1CCC(Cc2ccc(F)cc2)CC1)c1ccc(Cl)cc1` (stereo not drawn) [Eliprodil], the “MBP+ mature oligodendrocyte number” value was determined as 13.4.

With `CN(C)CC/C=C1/c2ccccc2Sc2ccc(Cl)cc21` [Chlorprothixene], the “MBP+ mature oligodendrocyte number” value was -4.88.

As to `CN(C)CC/C=C1/c2ccccc2Sc2ccc(Cl)cc21` [Chlorprothixene hydrochloride], the “MBP+ mature oligodendrocyte number” value was -3.22.

Take `N[C@@H](Cc1cc(I)c(Oc2cc(I)c(O)c(I)c2)c(I)c1)C(=O)O` [L-Thyroxine]: the “MBP+ mature oligodendrocyte number” value was -1.06.

As to `CC1(C)CCC(C)(C)c2cc(NC(=O)c3ccc(C(=O)O)cc3)ccc21` [Tamibarotene], the “MBP+ mature oligodendrocyte number” value was -5.08.

On to `O=C(O)C(O)Cc1ccc(O)c(O)c1` (stereo not drawn) [Sodium Danshensu], for which the “MBP+ mature oligodendrocyte number” value turned out to be 1.57.

On to `O=C(O)C(O)Cc1ccc(O)c(O)c1` (stereo not drawn) [Danshensu sodium salt], for which the “MBP+ mature oligodendrocyte number” value is -0.747.

For the compound `O=C1Nc2ccccc2/C1=C1/Nc2ccccc2C1=O` [Indirubin], the “MBP+ mature oligodendrocyte number” value was found to be 1.91.

For `CN1C[C@H](O)[C@@H](O)[C@H](O)[C@H]1CO` [N-Methyl-1-deoxynojirimycin], the “MBP+ mature oligodendrocyte number” value was -0.439.

Consider `Nc1cccc2c1C(=O)N(C1CCC(=O)NC1=O)C2=O` (stereo not drawn) [Pomalidomide], for which the “MBP+ mature oligodendrocyte number” value is -0.197.

Turning to `Oc1ccc(OC2CCCCO2)cc1` (stereo not drawn) [Deoxyarbutin], the “MBP+ mature oligodendrocyte number” value is -1.79.

Regarding `C=C1C[C@@]23CC[C@H]4[C@@](C)(CCC[C@@]4(C)C(=O)O)[C@@H]2CC[C@]1(O)C3` [Steviol], the “MBP+ mature oligodendrocyte number” value was -0.354.

With `Nc1ccn([C@@H]2O[C@H](CO)[C@@H](O)C2(F)F)c(=O)n1` [Gemcitabine hydrochloride], the “MBP+ mature oligodendrocyte number” value turned out to be 4.4.

As for `Nc1ccn([C@@H]2O[C@H](CO)[C@@H](O)C2(F)F)c(=O)n1` [Gemcitabine], the “MBP+ mature oligodendrocyte number” value came out at 11.8.

For `CO[C@H]1C[C@@H]2CC[C@@H](C)[C@@](O)(O2)C(=O)C(=O)N2CCCC[C@H]2C(=O)O[C@H]([C@H](C)C[C@@H]2CC[C@@H](OCCO)[C@H](OC)C2)CC(=O)[C@H](C)/C=C(\C)[C@@H](O)[C@@H](OC)C(=O)[C@H](C)C[C@H](C)/C=C/C=C/C=C/1C` [Everolimus (RAD001)], the “MBP+ mature oligodendrocyte number” value is -0.938.

On to `CN(C)CCN(Cc1ccccc1)c1ccccn1` [Tripelennamine HCl], for which the “MBP+ mature oligodendrocyte number” value stood at 1.77.

With `CC1CNc2c(cccc2S(=O)(=O)N[C@@H](CCCNC(=N)N)C(=O)N2CC[C@@H](C)C[C@@H]2C(=O)O)C1` (stereo partly drawn) [Argatroban], the “MBP+ mature oligodendrocyte number” value came out at 0.0731.

Turning to `CC1CNc2c(cccc2S(=O)(=O)N[C@@H](CCCNC(=N)N)C(=O)N2CC[C@@H](C)C[C@@H]2C(=O)O)C1` (stereo partly drawn) [Argatroban monohydrate], the “MBP+ mature oligodendrocyte number” value was -1.61.

On to `C=CC1=C(C)c2cc3[nH]c(cc4nc(cc5[nH]c(cc1n2)c(C)c5CCC(=O)O)C(CCC(=O)O)=C4C)c(C)c3C=C` [Protoporphyrin IX disodium], for which the “MBP+ mature oligodendrocyte number” value is -2.96.

Regarding `O=C(/C=C/c1ccccc1)NC(NC(=S)Nc1cccc2cccnc12)C(Cl)(Cl)Cl` (stereo not drawn) [Salubrinal], the “MBP+ mature oligodendrocyte number” value was 19.

For the compound `CC(=O)O[C@@]12CO[C@@H]1C[C@H](O)[C@@]1(C)C(=O)[C@H](O)C3=C(C)[C@@H](OC(=O)[C@H](O)[C@@H](NC(=O)OC(C)(C)C)c4ccccc4)C[C@@](O)([C@@H](OC(=O)c4ccccc4)[C@H]21)C3(C)C` [Docetaxel], the “MBP+ mature oligodendrocyte number” value was -4.43.

On to `Nc1ncnc2c1ncn2[C@@H]1O[C@H](CO)[C@@H](O)[C@H]1O` [Adenosine], for which the “MBP+ mature oligodendrocyte number” value is -0.00311 ± 0.11.

`Clc1ccc(CSC(Cn2ccnc2)c2ccc(Cl)cc2Cl)cc1` (stereo not drawn) [Sulconazole Nitrate]: the “MBP+ mature oligodendrocyte number” value was 9.19.

As for `O=C(c1ccc(Nc2nccc(-c3cc4ccccc4s3)n2)cc1)N1CCC(N2CCCC2)CC1` [IKK-16 (IKK Inhibitor VII)], the “MBP+ mature oligodendrocyte number” value was below -6.01.

Turning to `C[n+]1cc2c3c(ccc2c2ccc4cc5c(cc4c21)OCO5)OCO3` [Sanguinarine chloride], the “MBP+ mature oligodendrocyte number” value was below -3.85.

Consider `Cc1cc(C)c(Nc2ccnc(Nc3ccc(C#N)cc3)n2)c(C)c1` [Dapivirine (TMC120)], for which the “MBP+ mature oligodendrocyte number” value was below -6.01.

Turning to `N[C@H]1C[C@@H]1c1ccc(-c2cccc(O)c2)cc1`, the “MBP+ mature oligodendrocyte number” value was 3.03.

Consider `CCCc1c2oc(C(=O)O)cc(=O)c2cc2c(=O)cc(C(=O)O)n(CC)c12` [Nedocromil], for which the “MBP+ mature oligodendrocyte number” value is -0.997.

Regarding `CC(=O)O[C@]1(C(C)=O)CC[C@H]2[C@@H]3C=C(Cl)C4=CC(=O)[C@@H]5C[C@@H]5[C@]4(C)[C@H]3CC[C@@]21C` [Cyproterone Acetate], the “MBP+ mature oligodendrocyte number” value stood at 21.5.

On to `CC(=O)O[C@]1(C(C)=O)CC[C@H]2[C@@H]3C=C(Cl)C4=CC(=O)[C@@H]5C[C@@H]5[C@]4(C)[C@H]3CC[C@@]21C` [Cyproterone acetate], for which the “MBP+ mature oligodendrocyte number” value was 3.38.

With `CC(C)c1cc(-c2n[nH]c(=O)n2-c2ccc3c(ccn3C)c2)c(O)cc1O` [Ganetespib (STA-9090)], the “MBP+ mature oligodendrocyte number” value is below -6.7.

Regarding `COc1ccc(-c2ccc3ncc4c(c3c2)n(-c2ccc(N3CCNCC3)c(C(F)(F)F)c2)c(=O)n4C)cn1`, the “MBP+ mature oligodendrocyte number” value was below -6.01.

Consider `C=CC(=O)Nc1cccc(Nc2nc(Nc3ccc(Oc4ccnc(C(=O)NC)c4)cc3)ncc2F)c1`, for which the “MBP+ mature oligodendrocyte number” value was -6.27.

As to `CCCSc1nc(N[C@@H]2C[C@H]2c2ccc(F)c(F)c2)c2nnn([C@@H]3C[C@H](OCCO)[C@@H](O)[C@H]3O)c2n1` [Ticagrelor], the “MBP+ mature oligodendrocyte number” value is -0.438.

Regarding `C=C1C[C@@]2(O)O[C@@]3(C[C@H]2C(C)C)[C@@H](C)CC[C@@H]13` [Curcumol], the “MBP+ mature oligodendrocyte number” value came to 5.04.

`O=C(O)COCCN1CCN(C(c2ccccc2)c2ccc(Cl)cc2)CC1` (stereo not drawn) [Cetirizine dihydrochloride]: the “MBP+ mature oligodendrocyte number” value is -0.0207.

As for `O=C(O)COCCN1CCN(C(c2ccccc2)c2ccc(Cl)cc2)CC1` (stereo not drawn) [Cetirizine DiHCl], the “MBP+ mature oligodendrocyte number” value is -0.938.

As to `N[C@@H]1CONC1=O` [D-Cycloserine], the “MBP+ mature oligodendrocyte number” value is -0.119.

`Cn1cc(-c2cnn3c(N)c(Br)c([C@@H]4CCCNC4)nc23)cn1`: the “MBP+ mature oligodendrocyte number” value is below -6.01.

For the compound `OCC1OC(n2cnc3c(NC4CCCCC4)ncnc32)C(O)C1O` (stereo not drawn) [N6-Cyclohexyladenosine], the “MBP+ mature oligodendrocyte number” value was -1.17.

Take `N[C@@H](Cc1c[nH]c2ccc(O)cc12)C(=O)O` [5-Hydroxy-L-tryptophan]: the “MBP+ mature oligodendrocyte number” value was -1.75.

Take `N[C@@H](Cc1c[nH]c2ccc(O)cc12)C(=O)O` [5-hydroxytryptophan (5-HTP)]: the “MBP+ mature oligodendrocyte number” value is -0.388.

With `CC(=O)Nc1nc2c(Oc3cc(-c4ccc(C(F)(F)F)cc4)ncn3)cccc2s1`, the “MBP+ mature oligodendrocyte number” value was found to be 4.88.

Values taken from the supplement of paper PMC6135742.
